Laboratory results: PubChem BioAssay AID1362 (SRMLSC, 2008)
Some of the results follow. Shown are side measurements of this screen, not its main read-out; they come without a call. Compounds called inactive in the main read-out are mostly missing here.

Experiment: growth inhibition of WT strain, primary screen, mitochondrial fusion inhibitor project, WT and mutant strains, chemical genetic (AID 1362); also: tested in S. cerevisiae
Conditions: mitochondrial fusion phenotypic screen, at 10 µM
For `Cc1ccc(-c2nc3cc(Br)cnc3nc2-c2ccc(C)cc2)cc1`, the inhibition was 22.2%. Molecule `O=C(c1ccc(Cl)c(Cl)c1)c1cnc(Nc2ccccc2)s1` has an inhibition of -1.32%. Molecule `O=C1C=C(Nc2ccccc2)C(=O)c2ccccc21` has an inhibition of 50.5%. With `O=C(CCn1nnc2ccccc21)Nc1nnc(Cc2ccccc2)s1` the inhibition was 0.2%. Work on `Cc1ccc(OCC(=O)Nc2ccccc2N2CCCC2)c(C)c1` yielded an inhibition of 17.2%. With `Cc1cccn2c(=O)c(/C=C(\C#N)S(=O)(=O)c3ccccc3)c(Oc3ccc(Cl)cc3)nc12` the inhibition was 22.3%. Molecule `O=C(c1ccccc1)c1nnc(-c2ccncc2)o1` has an inhibition of 15%. In the case of `CC(C)Cc1nc(N2CCN(C(=O)c3ccccc3)CC2)c(C#N)c2c1CCC2`, the inhibition is reported as -10.1%. Molecule `COc1ccccc1N1CCN(C(=O)c2oc3ccc(Br)cc3c2C)CC1` has an inhibition of 32.6%. Work on `COc1ccc(C(=O)N/N=C(\c2ccccc2)c2ccccn2)cc1` yielded an inhibition of 60.8%. With `S=C(NCCc1ccccc1)N/N=C/C1CCCCC1` the inhibition was 66.8%. Molecule `COc1cc(OC)c(-c2c3cc(O)c(=O)cc-3oc3cc(O)c(O)cc23)cc1OC` has an inhibition of 57.7%. With `COC(=O)c1ccc(Oc2cc(C)nc(-n3nc(C)cc3C)n2)cc1` the inhibition was 60.8%. `Cc1ccc2sc(NNC(=O)C3COc4ccccc4O3)nc2c1C` (configuration not stated) showed an inhibition of 65.2%. `Cc1cc(N2CCN(C(c3ccccc3)c3ccc(Cl)cc3)CC2)n2ncnc2n1` (configuration not stated) gave an inhibition of 43%. In the case of `CC(/C=N/n1c(COc2ccccc2)n[nH]c1=S)=C\c1ccccc1`, the inhibition is reported as 65.2%. `Cc1cc(C)n(-c2nc(NCCC(C)C)c3c4c(sc3n2)COC(C)(C)C4)n1` gave an inhibition of 52.9%. For `Cc1nc(-c2cccc(NS(=O)(=O)c3ccc4ccccc4c3)c2)cs1`, the inhibition was 30.3%. For `Cc1cccc(C)c1NC(=S)NCCSc1ccc(Cl)cc1`, the inhibition was 65.4%. `CC(C)OC(=O)C(C(=O)C(F)(F)F)c1cc(NS(=O)(=O)c2ccc3ccccc3c2)c2ccccc2c1O` (configuration not stated) showed an inhibition of 0.67%. Molecule `CCC(NC(=O)c1ccccc1NC(=O)c1ccccc1)C(=O)OC` (configuration not stated) has an inhibition of 74.8%. In the case of `CCOc1ccc(C(=O)C(CCC(CN(C)C)C(=O)c2ccc(OCC)cc2)CN(C)C)cc1` (configuration not stated), the inhibition is reported as 12.6%. Work on `Clc1ccc(OCCn2cnc3ccccc32)c(Cl)c1` yielded an inhibition of 56.4%. With `CC(=O)NC1C(c2nc3ccccc3s2)=C(c2ccccc2)C(=O)N1c1ccc(C)cc1` (configuration not stated) the inhibition was 18.9%. Molecule `Cc1ccc(-c2ncccc2OC(=O)C23CC4CC(CC(C4)C2)C3)cc1` has an inhibition of 8.82%. For `Cc1cccc(NC(=S)N/N=C(\c2ccccc2)C(C)C)c1`, the inhibition was 67.8%. In the case of `COc1cnc(-c2ccccn2)nc1Oc1ccccc1Cl`, the inhibition is reported as 48%. With `CCCCCCn1c(N2CCN(c3ccccc3)CC2)nc2c1c(=O)n(C)c(=O)n2C` the inhibition was 8.19%. For `O=C(Cc1cccs1)N1CCN(c2nc(-c3ccc(Cl)cc3)cs2)CC1`, the inhibition was 48.9%. Molecule `CCOC(=O)c1sc(NC(=O)Nc2ccc(Cl)cc2)cc1C` has an inhibition of 41.2%. In the case of `CCC(C)c1ccccc1NC(=O)COC(=O)c1ccc2[nH]c3c(c2c1)CCCC3` (configuration not stated), the inhibition is reported as 9.25%. `Cc1ccc(Cc2c[nH]c(=S)s2)cc1` gave an inhibition of 58.2%. `Cc1ccc(N=Cc2c(O)n(-c3ccc4c(c3)OCO4)c(=O)c3ccccc23)cc1` gave an inhibition of 6.72%. `COc1ccc(CCNC(=S)Nc2cc(C)cc(C)c2)cc1` gave an inhibition of 12.1%. Molecule `O=C1C2C3C=CC(CO)(O3)C2C(=O)N1c1ccccc1-c1ccccc1` (configuration not stated) has an inhibition of 54.3%. `Cc1ccc(C(=O)c2cc(C)sc2NC(=O)CN2CCN(C(=O)c3ccco3)CC2)cc1` showed an inhibition of 46.4%. In the case of `CCCCNC(=S)N(C)/N=C/c1ccc2c(c1)OCO2`, the inhibition is reported as 28.1%. `CCN1C/C(=C/c2cccc([N+](=O)[O-])c2)C(=O)/C(=C/c2cccc([N+](=O)[O-])c2)C1` gave an inhibition of 59.9%. `COc1ccc(C2C3=C(CC(C)(C)CC3=O)Oc3ncn(Cc4ccccc4)c(=N)c32)cc1` (configuration not stated) showed an inhibition of -34.6%. `Nc1nc(-c2cccc(Br)c2)cs1` gave an inhibition of 40%. For `COc1ccc(-c2nnc(SCc3nnc(-c4ccc(Cl)cc4)o3)n2-c2ccccc2)cc1`, the inhibition was 22.3%. Molecule `COCCCNC(=O)CS(=O)(=O)Cc1nc(-c2cccc(OC)c2)oc1C` has an inhibition of -0.39%. Molecule `Cc1c(Cl)cccc1NC(=O)c1cc(-c2ccccc2O)n[nH]1` has an inhibition of 27.9%. `CC(C)(C)Nc1nc(SCc2ccccc2)nc(N2CCOCC2)n1` showed an inhibition of 15.2%. Work on `Cc1cccc(-c2ncc(CN3CCCC(CO)(Cc4cccc(Cl)c4)C3)cn2)c1` (configuration not stated) yielded an inhibition of 17.1%. For `CCOC(=O)C1(CCCc2ccccc2)CCN(Cc2nccn2CC)CC1`, the inhibition was 31.4%. Work on `Clc1ccc(OCCn2c(-c3ccco3)nc3ccccc32)cc1` yielded an inhibition of 64.2%. In the case of `CC(C)c1nc(SCC(=O)Nc2nc3c(s2)CCCC3)c2ccccc2n1`, the inhibition is reported as 44.8%. In the case of `CC1CC1C(=O)Nc1nc(-c2cccs2)c(-c2cccs2)s1` (configuration not stated), the inhibition is reported as 33.5%. Molecule `C/C=C(\C)CN1CCN(c2cc(C)ccc2C)CC1` has an inhibition of 5.4%. Work on `Clc1cccc(Nc2ncnc3ccc(Br)cc23)c1` yielded an inhibition of 56%. `COC(=O)c1ccccc1NC(=O)CNc1cc(Cl)ccc1N1CCOCC1` showed an inhibition of 4.26%. Molecule `O=C(O)c1cn(-c2ccc(N3CCCC3)c(F)c2)c2c(F)c(F)c(F)cc2c1=O` has an inhibition of 70.7%. `CC(=O)N1N=C(c2ccc(Br)cc2)CC1c1cn(C)c2ccccc12` (configuration not stated) showed an inhibition of 32.1%. For `COc1ccc(OC)c(-c2cc(C(=O)Nc3c(C)nn(Cc4ccccc4)c3C)no2)c1`, the inhibition was 18.7%. Work on `O=[N+]([O-])c1ccccc1S(=O)(=O)NCCC1=CCCCC1` yielded an inhibition of 6.79%. With `Cc1cccc(NC(=S)N(Cc2ccco2)C(C)c2cccs2)c1` (configuration not stated) the inhibition was 48.3%. With `c1ccc(-c2csc(N3CCN(c4ccccn4)CC3)n2)cc1` the inhibition was 18.8%. Work on `CC1CCCCC1NC(=O)/C(C#N)=C/c1ccccc1F` (configuration not stated) yielded an inhibition of 47.2%. Work on `O=C(COC(=O)C1COc2ccccc2O1)NC(=O)Nc1ccc2c(c1)OCCO2` (configuration not stated) yielded an inhibition of 97.7%. In the case of `COc1ccc(S(=O)(=O)N2CCC(C(=O)N3CCCCC3)CC2)cc1OC`, the inhibition is reported as 22.5%. `CC(=O)C(=Nc1ccccc1Cl)NNc1ccc(Cl)cc1` showed an inhibition of 43.2%. In the case of `CCNC(=S)N/N=C/c1cc(C)n(-c2ccc(Cl)cc2)c1C`, the inhibition is reported as 61.7%. Work on `Cc1cc(C)n(C(=O)/C(C#N)=N/Nc2cc(Cl)cc(Cl)c2)n1` yielded an inhibition of 85%. `COc1cc(CNCCc2c[nH]c3ccccc23)ccc1OCc1ccc(F)cc1` gave an inhibition of 82.6%. For `COc1cccc(NC(=O)Nc2ccc(C(C)(C)C)cc2)c1`, the inhibition was 27.8%. Work on `COCCCNC(=S)NC1CC2CCCC(C1)N2Cc1ccco1` (configuration not stated) yielded an inhibition of 97.3%. With `O=C1C=CC(=O)N1CCCCCCN1C(=O)C=CC1=O` the inhibition was 82.4%. In the case of `O=C1c2cccc(OCC(=O)N3CCCc4ccccc43)c2CCN1Cc1ccc(F)cc1`, the inhibition is reported as 29.7%. In the case of `Cc1ccc(NC(=O)N2N=C(c3ccc(F)cc3)CC2c2ccc(F)cc2)cc1` (configuration not stated), the inhibition is reported as 64.6%. Work on `O=C(Nc1cccc(C(F)(F)F)c1)n1cc(-c2ccccn2)c(N2CCOCC2)n1` yielded an inhibition of 46.3%. Work on `Cc1ncoc1C(=O)N1CCCC(C(=O)c2ccc(-c3ccccc3)cc2)C1` (configuration not stated) yielded an inhibition of 61.3%. `Cc1coc2c1C(=O)C(=O)c1c-2ccc2c1CCCC2(C)C` gave an inhibition of 67.7%. `Cc1cc(C)cc(N(CC(=O)NCC2CCCO2)C(=O)CCC(=O)Nc2cc(C)on2)c1` (configuration not stated) gave an inhibition of 97.3%. With `Fc1ccc(CO/N=C/C2=C(Cl)c3ccccc3CC2)cc1` the inhibition was 27.3%. Molecule `Cc1ccc(-c2csc3nc4c5ccccc5c(NCCCN5CCOCC5)nn4c(=O)c23)cc1` has an inhibition of 27.1%. In the case of `O=C(O)c1ccc(-c2nc(-c3ccc(Cl)c(Cl)c3)cs2)cc1`, the inhibition is reported as 51.9%. Molecule `O=S(=O)(Nc1ccc(-c2csc(-c3ccccc3)n2)cc1)c1ccc(F)cc1` has an inhibition of 90.5%. For `Cc1occc(=O)c1OC(=O)Nc1ccc(Cl)c(Cl)c1`, the inhibition was 63.9%. Work on `COc1ccc(CCn2nnnc2C(C(C)C)N2CCN(c3ncccn3)CC2)cc1OC` (configuration not stated) yielded an inhibition of 11.3%. In the case of `c1ccc(CSc2ncnc3c2cnn3Cc2ccccc2)cc1`, the inhibition is reported as 43.8%. `CCCCCC(=O)O[C@]1(C(C)=O)CC[C@H]2[C@@H]3CCC4=CC(=O)CC[C@]4(C)[C@H]3CC[C@@]21C` gave an inhibition of -0.28%. In the case of `CCC1(c2ccccc2)NC(=S)N(c2ccc(C)cc2)N1` (configuration not stated), the inhibition is reported as 40.8%. With `CCOCCCNC(=O)/C(C#N)=C/c1ccc([N+](=O)[O-])o1` the inhibition was 89.7%. With `Cc1ccc(C(=O)Nc2ccc(C)c(S(=O)(=O)Nc3ccccc3Cl)c2)s1` the inhibition was 38.3%. In the case of `CC(C)OC(=O)c1c(-c2ccc(C(C)C)cc2)csc1NC(=O)C1CCCO1` (configuration not stated), the inhibition is reported as -8.21%. `COc1ccc2c(c1)C1=C(CC2)C(c2ccc(C)cc2)NC(=S)N1` (configuration not stated) showed an inhibition of 72.1%. For `S=c1[nH]nc(-c2ccco2)n1/N=C/c1ccc(Cl)c(Cl)c1`, the inhibition was 48.1%. With `CCc1nnc(NC(=O)C2Cc3ccccc3CN2S(=O)(=O)c2ccc(C)cc2)s1` (configuration not stated) the inhibition was 1.89%. Molecule `O=c1c2ccccc2nc(/C=C/c2ccc([N+](=O)[O-])o2)n1CCCO` has an inhibition of 28%. In the case of `c1ccc2c(c1)[nH]c1c(N3CCCC3)ncnc12`, the inhibition is reported as -2.96%. Work on `COc1ccc(Cl)cc1S(=O)(=O)N1CCN(Cc2ccc3c(c2)OCO3)CC1` yielded an inhibition of 37.9%. Work on `COc1cccc(Nc2nc(-c3cccs3)nc3ccccc23)c1` yielded an inhibition of 62.5%. For `C=CCN(CC=C)C(=S)NC(=O)c1ccc(-c2ccccc2)cc1`, the inhibition was 60.2%. Molecule `O=C(c1ccc(Br)o1)N(Cc1ccccc1)Cc1ccccc1` has an inhibition of 51.7%. Molecule `CCc1ccc(C(C)NC(=O)/C(C#N)=C\c2cn[nH]c2-c2ccccc2)cc1` (configuration not stated) has an inhibition of 15.7%. Work on `COc1ccccc1NC(=S)NCCSc1ccc(Cl)cc1` yielded an inhibition of 61.1%. `COc1cc(CNCc2ccccn2)ccc1OCc1ccc(Cl)c(Cl)c1` showed an inhibition of 51.7%. Work on `CC(C)=C1C2CCC1C(C(=O)Nc1sc(C)c(-c3ccc(C(C)C)cc3)c1C(N)=O)C2C(=O)O` (configuration not stated) yielded an inhibition of 4.07%. `C=CCNC(=S)NN=C1CCCCCCC1` showed an inhibition of 37.6%. `CCCc1ccc(/C=C2\C(=O)c3ccccc3C(O)=C2C(=O)OCC)cc1` gave an inhibition of 24.6%. `OC(CC1CC12c1ccccc1-c1ncccc12)(c1ccccc1)c1ccccc1` (configuration not stated) gave an inhibition of 12.6%. Work on `C=CC[n+]1ccc(/C=C2\C=Cc3cc(C)ccc3N2CC)c2ccccc21` yielded an inhibition of 84.8%. With `O=C(NCc1ccc2c(c1)OCO2)c1ccc(CSCc2ccc(Cl)cc2)o1` the inhibition was 32.2%. For `CCOc1cc(CNn2cn[nH]c2=S)cc(Cl)c1OCc1ccccc1F`, the inhibition was 22%. In the case of `CCC(C)c1ccc(NC(=S)Nc2ccc(OC)cc2)cc1` (configuration not stated), the inhibition is reported as 37.6%. Work on `O=C(NCc1ccccc1)/C(=C/c1ccc(OC(F)F)cc1)c1ccccc1` yielded an inhibition of 13.2%.
